# Data published in PubChem BioAssay AID686979 (National Center for Advancing Translational Sciences (NCATS), 2013).
# “And” between values parts separate entries of the source, which are not always exact repeats. Equal entries are not always repeated. Hit rate of the full screen: of about 420,000 compounds, about 50,000 (12%) were called active. This list was built around the results that the source calls inconclusive (neither active nor inactive); the mix of calls is not that of the screen. Calls come from the whole dose curve; as a rule, active = well fitted inhibition curve with a large enough effect; inconclusive = small, poorly fitted or top-dose-only effect; inactive = flat fitted curve, though single readings scatter. Where the call is inconclusive, the potency comes from a doubtful curve fit.
# Experiment: qHTS for Inhibitors of human tyrosyl-DNA phosphodiesterase 1 (TDP1): qHTS in cells in presence of CPT; note: nearly all actives have a fitted effect of over 55% in size
# Settings: chicken DT40 Tdp1-/-;hTDP1 cells + 20 nM CPT, ATP luminescence, 48 h; activity change, negative = growth inhibition: at 46.2 µM (top of the series) unless noted
# How it was run: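 Chicken DT40 Tdp1-/- cells stably complemented with human TDP1 were seeded at 400 cells/well in medium containing 20 nM camptothecin, exposed to pin-transferred compounds, and grown at 37 °C for at least 48 hr. Viability was read as ATP luminescence.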
# % is set by controls: 0 for no effect and ±100 for the full control effect; potency is the fitted concentration of half-maximal effect; tags give direction and shape of the fitted curve.
SMILES,Potency,"activity change, negative = growth inhibition"
O=C(NC1CC1)c1ccc(CSCc2cccc(F)c2)o1,"inconclusive: 18.4 µM [inhibitor, single point]",–
O=C(NNC(=O)c1ccc(S(=O)(=O)N2CCOCC2)cc1)c1ccccc1,–,inactive: -2.75%
Cc1cccc(N2CCN(C(=O)c3ccc(NC4=NC5CS(=O)(=O)CC5S4)cc3)CC2C)c1 (stereo not given),"inconclusive: 29.1 µM [inhibitor, single point]",–
COc1cccc(C(=O)Nc2ccc(NC(=O)c3ccco3)c(Cl)c2)c1,"inconclusive: 29.1 µM [inhibitor, single point]",–
O=C(CCCN1CCN(c2ccccn2)CC1)c1ccc(F)cc1,"inconclusive: 16.4 µM [inhibitor, single point]",–
CN(CC(=O)Nc1cccc(F)c1)C(=O)c1cccc(S(=O)(=O)N2CC3(C)CC2CC(C)(C)C3)c1 (stereo not given),"inconclusive: 23.1 µM [inhibitor, single point]",–
O=C(Nc1cc(Sc2ccccn2)cc([N+](=O)[O-])c1)c1cccc(F)c1,"inconclusive: 16.4 µM [inhibitor, single point]",–
COCC(C)n1c(C)cc(C(=O)COC(=O)c2nc3nc(C)cc(C)n3n2)c1C (stereo not given),"inconclusive: 29.1 µM [inhibitor, single point]",–
Cc1ccc2cc(C#N)c(SCc3nnc(-c4ccccc4[N+](=O)[O-])o3)nc2c1,"inconclusive: 29.1 µM [inhibitor, single point]",–
CN(CC(=O)Nc1ccc(OC(F)(F)F)cc1)S(=O)(=O)c1ccc2c(c1)CCC(=O)N2,"inconclusive: 16.4 µM [inhibitor, single point]",–
CC(C)(C)NC(=O)c1cccc(NC(=O)c2ccco2)c1,–,inactive: -27.5%
COc1ccc2nc(/N=C/c3c(C)[nH]n(-c4ccc(C)cc4C)c3=O)sc2c1,–,inactive: -15.7%
Cc1c(C(=O)N2CCCC2)oc2c1-c1nn(CC(=O)NCc3ccc(OC(C)C)cc3)cc1CC2,"inconclusive: 16.4 µM [inhibitor, single point]",–
CCn1c(SCC(=O)Nc2nnc(C)s2)nc2c(c1=O)SC(C)C2 (stereo not given),–,inactive: -27.8%
Cc1c(C)c(C)c(S(=O)(=O)NCCC(=O)N2CCN(Cc3ccc(C#N)cc3)CC2)c(C)c1C,active: 16.4 µM,–
O=C(N/N=C/c1ccccc1)C1CCCN1C(=O)c1cc([N+](=O)[O-])cc([N+](=O)[O-])c1 (stereo not given),"inconclusive: 11.6 µM [inhibitor, partial curve]",–
Cc1ccc(C)c(NC(=O)COC(=O)CCC(=O)c2cccs2)c1,–,inactive: -3.09%
COc1ccc(CCn2c(=N)c(C(=O)N3CCN(C)CC3)cc3c(=O)n4ccccc4nc32)cc1,"inconclusive: 18.4 µM [inhibitor, single point]",–
CCc1cc(C(c2ccc(F)cc2)N2CCOCC2)c(NC(=O)c2ccccc2)s1 (stereo not given),"inconclusive: 29.1 µM [inhibitor, single point]",–
O=C(Nc1ccc(N2CCCC2)cc1)C(c1ccccc1)c1ccccc1,"inconclusive: 20.6 µM [inhibitor, single point]",–
O=C(COc1ccc2ccccc2c1)NNC(=O)C(=O)Nc1ccccc1,–,inactive: -17.4%
O=C(NCCC1CCCCN1S(=O)(=O)c1ccc(Cl)cc1)C(=O)NCc1cccnc1 (stereo not given),"inconclusive: 23.1 µM [inhibitor, partial curve]",–
CCCCOCCCNC(=O)C[C@@H]1C[C@@]2(C(=O)OCC)CCC=C2N(Cc2ccc(Cl)cc2Cl)C1=O,active: 20.6 µM,–
Cc1ccc(-n2c(=O)c3c(C)c(C(=O)N(C)C)sc3n(CC(=O)N(C)c3ccccc3)c2=O)cc1C,–,inactive: -26.7%

SMILES,Potency,"activity change, negative = growth inhibition"
Cc1ccc(C)c(NC(=O)CSc2nc3nccnc3c(=O)n2CCc2c[nH]c3ccccc23)c1,active: 11.6 µM,–
CN1C(=O)C2(c3ccccc31)N(C)CC(c1ccccc1)C21SC(=S)N(Cc2ccco2)C1=O (stereo not given),"inconclusive: 29.1 µM [inhibitor, single point]",–
COc1cccc2oc3cc(C#Cc4ccccn4)ccc3c(=O)c12,"inconclusive: 29.1 µM [inhibitor, single point]",–
CCOC(=O)c1cc(-c2ccccc2)n(CCCC(=O)Nc2ccc(C)c(Cl)c2)c1C,"inconclusive: 29.1 µM [inhibitor, single point]",–
Cc1ccc2occ(-c3cc(-c4ccccc4)nc4c3COc3ccccc3-4)c(=O)c2c1,–,inactive: -28.1%
CCOc1ccc(NC(=O)CCCCn2c(=O)[nH]c3ccsc3c2=O)cc1,–,inactive: -2.48%
O=C(COC(=O)c1ccc2ncsc2c1)Nc1ccccc1Cl,–,inactive: 3.81%
CCn1c(SCC(=O)Nc2ccccc2C)nc2nc3c(cc2c1=O)COC(C)(C)C3,"inconclusive: 18.4 µM [inhibitor, single point]",–
COc1cc(-c2nnc(SCc3ccccc3Cl)o2)cc(OC)c1OC,"inconclusive: 23.1 µM [inhibitor, single point]",–
CC(=O)N/N=c1\sc2ccccc2n1C,–,inactive: 9.99%
O=CN/C=C/c1cccc(O)c1,–,inactive: -8.52%
COc1ccc(-c2nc(-n3c(C)c(C(C)=O)c(C(C)=O)c3C)sc2C)cc1OC,"inconclusive: 32.6 µM [inhibitor, single point]",–
O=C(Nc1ccc(-c2nc3cc(Cl)ccc3o2)cc1)c1cc(Br)ccc1Cl,"inconclusive: 29.1 µM [inhibitor, single point]",–
CCOc1ccc2nc(N(CCN(C)C)C(=O)/C=C/c3cccs3)sc2c1,"inconclusive: 25.9 µM [inhibitor, single point]",–
CC(=O)Nc1ccc(C2=CC(=O)C[C@H](c3ccc4c(c3)OCO4)C2)cc1,"inconclusive: 29.1 µM [inhibitor, single point]",–
COCCn1c(=O)cnc2cnc(N(C)C)nc21,–,inactive: 0.686%
Cc1nnsc1C(=O)N1CCC(CO)(Cc2ccccc2Cl)CC1,"inconclusive: 23.1 µM [inhibitor, partial curve]",–
CCc1cccc(C)c1NC(=O)CN1CCN(Cc2ccccc2Cl)S1(=O)=O,"inconclusive: 18.4 µM [inhibitor, single point]",–
[N-]=[N+]=CC(=O)C(c1ccccc1)(c1ccccc1)c1ccccc1,–,inactive: 3.34%
CC(C)(C)c1ccc(C(=O)N2CCC2(C)C(=O)NCCC#N)cc1 (stereo not given),"inconclusive: 16.4 µM [inhibitor, single point]",–
CCCC[C@@H]1C[C@H]1[C@@H](NC(=O)c1ccco1)c1ccc(C(=O)OC)cc1,"inconclusive: 29.1 µM [inhibitor, single point]",–
CC1(C)CCc2cc(S(=O)(=O)N3CCN(c4nc(-c5cccs5)nc5ccccc45)CC3)ccc2O1,–,inactive: -8.77%
O=C(c1ccc(NS(=O)(=O)c2ccccc2)cc1)N1CCN(Cc2ccc3c(c2)OCO3)CC1,"inconclusive: 6.51 µM [inhibitor, partial curve]",–
O=C(NC1CC2CCCC(C1)N2C(=S)NCCc1ccccc1)C1CC1 (stereo not given),–,inactive: -85.2%

SMILES,Potency,"activity change, negative = growth inhibition"
C[C@@H](CN1CCC[C@H]1CN1C(N)=NC[C@@H]1Cc1ccccc1)N1C[C@@H](Cc2ccccc2)N(CCc2ccc(Cl)c(Cl)c2)C1=N,"inconclusive: 29.1 µM [inhibitor, single point]",–
CCN(CC)S(=O)(=O)c1ccc2c(c1)N(CC(=O)N1CCN(c3cccc(C)c3)C(C)C1)C(=O)CO2 (stereo not given),"inconclusive: 23.1 µM [inhibitor, single point]",–
Cc1cnc(CNc2cc(-c3ccc4c(c3)OCO4)ncn2)cn1,–,inactive: 2.34%
O=C(c1ccco1)N1N=C(c2ccccc2)CC1c1ccc2nccnc2c1 (stereo not given),"inconclusive: 29.1 µM [inhibitor, single point]",–
COc1ccc(O)c(CNc2ccccc2F)c1,–,inactive: -16.4%
COc1cc(C(=O)NC2(C(F)(F)F)C(=O)NC(C)=C2C#N)cc(OC)c1OC (stereo not given),–,inactive: 1.49%
CC(C)Nc1nc(NCCN2CCCC2)c2sc(-c3ccccc3)cc2n1,active: 6.51 µM,–
O=C(CCNc1ccc(F)cc1)c1cccc([N+](=O)[O-])c1,active: 16.4 µM,–
COc1ccc(S(=O)(=O)N2CCCC2C(=O)Nc2ccc(C(C)=O)cc2)cc1 (stereo not given),"inconclusive: 20.6 µM [inhibitor, single point]",–
Nc1nc2cc(S(=O)(=O)NC3=NCCCCC3)ccc2s1,active: 14.6 µM,–
CCOC(=O)c1ccoc1CSCc1ccc(C(=O)OC)o1,"inconclusive: 23.1 µM [inhibitor, single point]",–
COc1cc(C(=O)Nc2ccc3nc4n(c(=O)c3c2)CCCCC4)cc(OC)c1OC,"inconclusive: 23.1 µM [inhibitor, single point]",–
c1ccc2[nH]c(SCc3cscn3)nc2c1,–,inactive: -28%
COC(=O)C1NC(=O)N2C(C(=O)OC)C(C)(C)S[C@H]12 (stereo not given in full),inactive,–
C=CCn1c(C)cc(C(=O)COc2ccc(N(C)S(=O)(=O)c3ccc(NC(C)=O)cc3)cc2)c1C,active: 9.2 µM,–
Cc1cnnc2c1-c1nonc1CC2,–,inactive: -7.43%
CC(=O)c1ccc(N2CCN(C(=O)Nc3ccc(C)cc3)CC2)cc1,"inconclusive: 29.1 µM [inhibitor, single point]",–
CCN(CC)S(=O)(=O)c1ccc(C(=O)OCn2c(SC)nnc(C)c2=O)cc1,–,inconclusive: -30.8% [inhibitor]
CC(C)[C@@H](C(=O)NC1CC1)N1C(=O)N2CCc3c([nH]c4ccccc34)[C@@]2(C)C1=O,"inconclusive: 20.6 µM [inhibitor, single point]",–
Cc1noc(C)c1S(=O)(=O)N1CCCC(C(=O)NCCc2ccccc2)C1 (stereo not given),"inconclusive: 29.1 µM [inhibitor, single point]",–
COc1cc(/C=N/NC(N)=O)cc(Br)c1OCc1ccccc1C,–,inactive: -10.5%
Cc1cc(NC(=O)Nc2ccc3c(ccn3C)c2)sn1,"inconclusive: 33.5 µM [inhibitor, single point] and inconclusive: 18.4 µM [inhibitor, single point]",–
